# Laboratory results: ChEMBL document CHEMBL4888484, “Replenishing the malaria drug discovery pipeline: Screening and hit evaluation of the MMV Hit Generation Library 1 (HGL1) against asexual blood stage Plasmodium falciparum ,using a nano luciferase reporter read-out” (2022)
# Hit rate of the full screen: of about 150,000 compounds, about 540 (0.36%) showed an effect of 50% or more. Some of the results follow.
# Tested on: Plasmodium falciparum
# Assay: Primary screen in NF54 nanoGlo assay, in single point, at 2uM, 72h; a lower Z score goes with more inhibition
# Format: functional, Erythrocyte
# Settings: timepoint 72 hour
Structure (SMILES),% Inhibition,Z score
O=C(C[C@H]1CCCS(=O)(=O)C1)Nc1cnccc1-c1cccc(F)c1,-1%,0.23
COCCn1nnnc1[C@]1(N2CCCC2)CCN(C(=O)COCc2ccccc2)C1,-1%,0.13
O=C1N(CCc2c[nH]c3ccccc23)c2ccccc2NC12CCNCC2,-1%,0.23
CCc1nnc(CNc2nc3c(s2)c(C)nn3C)s1,-3%,0.59
CNC(=O)CCn1ncc(N(C)Cc2ccccc2)cc1=O,-4%,0.43
COCCCN1C(=O)CC[C@@H]2CN(c3ncnc4[nH]ccc34)CC[C@@H]21,2%,-0.29
CC1CN(c2ccncc2Cl)CC1N1CCOCC1 (configuration not stated),-7%,0.86
C[C@@H](CNC(=O)NCCc1cn2c(n1)CCCC2)Oc1ccccc1,-7%,0.83
Cc1nccn1CCNC(=O)c1cc2cccc(Cl)c2n1C,-16%,1.43
CCCn1nccc1S(=O)(=O)NC[C@H]1CCN(CCOC)C1,-29%,2.57
O=C1C[C@H](c2noc(-c3cccc4c3OCCO4)n2)CN1CC1CCC1,3%,-0.62
CCCCc1noc(Cn2cc([C@H](O)c3ccccc3)cn2)n1,-5%,1.06
CC1(C)[C@@H](O)CCN1C(=O)c1cncc(O)c1,-2%,0.29
O=C1C[C@@H](C(=O)Nc2ccc(Cl)cc2)Oc2ccc(F)cc21,34%,-3.89
O=C(NC[C@H]1CCCN(C(=O)c2cccnc2O)C1)c1cscn1,-8%,1.41
COc1cccc(CCn2ccnc2-c2nc(C)cs2)c1,3%,-0.39
Cn1nccc1COCC(=O)N1CCC[C@H]1Cn1cc(C2CC2)nn1,-2%,0.29
COCCNC(=O)[C@H]1CCCN(c2cnc3nccnc3c2)C1,-5%,0.87
CN1C(=O)CC(C(=O)Nc2ccncc2)C1c1ccc2c(c1)OCO2 (configuration not stated),-12%,1.23

Structure (SMILES),% Inhibition,Z score
CC1CCC(NC(=O)C2(C)Cn3c(nc4ccccc43)C(=O)N2CC2CCCO2)CC1 (configuration not stated),-5%,0.5
O=C1NC(=O)C2(CCN(C(=O)C3CC3C3CCCCC3)C2)N1 (configuration not stated),-4%,0.78
Cc1ccc(-c2noc(C3CC4C=CC3C4)n2)cn1 (configuration not stated),-12%,2.12
FC(F)(F)c1ccnc(N[C@H]2CCCN(CCN3CCOCC3)C2)c1,-3%,0.49
COc1ccc2c(c1)CCC[C@@]2(O)CNS(=O)(=O)c1cccnc1,-20%,2.62
C=CCNS(=O)(=O)c1ccc(C)c(C)c1,-13%,1.76
Cc1n[nH]c([C@@H]2CN(C(=O)C3CCCC3)CCCN2Cc2ccccc2)n1,-10%,1.87
C#CC(CCC)NC(=O)N1CC(C)OC(C)(C)C1 (configuration not stated),2%,-0.27
COc1ccc(N(Cc2cc(CN3CCOCC3)cs2)S(=O)(=O)c2cc(F)ccc2C)cc1,-9%,1.15
Cc1cc(=O)c(OCC(=O)Nc2nccs2)cn1C,-1%,0.09
C[C@@H]1CN(C[C@@H]2CN(C(=O)c3ccc4[nH]nnc4c3)C[C@@H]2CO)C[C@H](C)O1,-1%,0.21
CCC1CCN(c2ccc(C(=O)N(C)C)nn2)CC1,-3%,0.48
CC(C)(C)[C@H](NC(=O)c1nccnc1N)C(F)(F)F,-3%,0.31
Cc1ccc(-c2nnc([C@H](C)Nc3ccc4c(c3)OCO4)o2)cc1,-12%,1.65
Cc1ccc(S(=O)(=O)NCCNc2nc(C3CC3)nc3c2c(C)nn3-c2ccccc2)cc1,0%,0.05
c1c[nH]c(-c2nccn2-c2ccc3ncsc3c2)n1,-1%,0.1
Cc1ccccc1CC(=O)n1nc(C)c(Cl)c1C,-1%,0.15
CC(C)(C)OC(=O)N1CCN(c2cccnc2)C(=O)C1,-18%,2.12
CC(C)c1cc(CNC(=O)Cc2cccnc2)no1,-4%,0.59

Structure (SMILES),% Inhibition,Z score
Cc1cc(C)cc(S(=O)(=O)NCc2nc3cccnc3n2C2CCCC2)c1,4%,-0.68
O=C(O)CCC1CCCN(C2CCN(c3ccccc3Cl)C2=O)C1 (configuration not stated),0%,0.02
COC[C@H]1CCCN1C(=O)c1cc(-c2ccco2)nc2c(Cl)cccc12,-18%,1.89
CS(=O)(=O)N1C2CCC(C2)C1C(=O)Nc1nccs1 (configuration not stated),-8%,1.27
CCN(CCS(C)(=O)=O)[C@@H](C)c1nnc(-c2ccc(C)cc2)o1,-10%,1.02
Cc1cc2c(cc1-c1ccnc(N3CCN(c4ccccc4)CC3)n1)[C@@H](C)CC(C)(C)N2,23%,-3.06
c1cc(CN2CCC[C@H](CN3CCCC3)C2)co1,-3%,0.59
Cc1cnn(CCC(=O)N[C@@H](C)Cc2ncccc2C)c1,-11%,1.1
Cc1cccc(NC(=O)Cn2nc(COc3ccccc3)oc2=S)c1,-40%,4.68
Cc1nc(Cn2ncc(N(C)Cc3ccccc3)cc2=O)co1,7%,-0.67
O=C1CCN(C(=O)c2ccc(-c3cccc(F)c3)cc2)CCN1Cc1ccccn1,-2%,0.46
O=C(CN1c2ccccc2-c2ccccc2S1(=O)=O)N1CCCCC1,0%,0
O=C(Cc1ccon1)Nc1ccc(Oc2ccc(F)cc2F)nc1,-13%,1.79
CC(C)NC(=O)CCc1nnc2ccc(N3CCC4(CC3)OCCO4)nn12,-19%,2.56
CCc1nsc(N2CCCC3CC32)n1 (configuration not stated),0%,0.04
COc1cc(CCNC(=O)N2CCOC(C(F)(F)F)C2C)ccn1 (configuration not stated),-10%,1.39
CCCc1cc(N(CC(=O)O)CC(C)C)nc(C)n1,-3%,0.46
C[C@@H](Cn1cccn1)N1CCC2(CC1)CN(CCOc1ccccc1)C(=O)O2,-12%,1.51
